{"source": "the BET-seq Pho4 binding data (Le et al. 2018)", "note": "Some of the results follow. The energies were worked out here from pooled read counts, against the library average; single values are noisy.", "data": [{"target": "T1, Pho4 (S. cerevisiae) (UniProt P07270)", "T1 sequence": "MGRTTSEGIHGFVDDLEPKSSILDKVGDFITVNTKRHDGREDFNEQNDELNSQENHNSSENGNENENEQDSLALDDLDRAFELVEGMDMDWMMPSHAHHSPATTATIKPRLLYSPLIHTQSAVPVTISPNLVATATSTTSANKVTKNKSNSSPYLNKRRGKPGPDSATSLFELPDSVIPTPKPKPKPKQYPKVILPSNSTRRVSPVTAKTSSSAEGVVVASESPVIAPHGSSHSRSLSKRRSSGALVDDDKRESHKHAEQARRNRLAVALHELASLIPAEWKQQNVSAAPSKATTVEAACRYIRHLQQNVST", "experiment": "relative binding free energy (BET-seq); higher = weaker binding", "settings": "reference: library average", "units": {"relative binding free energy": "kcal/mol"}, "values": [{"sequence": "TGTGACACGTGTTCAA", "relative binding free energy": -0.02}, {"sequence": "GGTACCACGTGGCGGG", "relative binding free energy": -0.16}, {"sequence": "AGGGACACGTGGGTCG", "relative binding free energy": -0.09}, {"sequence": "GTATTCACGTGGTAAT", "relative binding free energy": 0.29}, {"sequence": "TTGATCACGTGATAGA", "relative binding free energy": 0.28}, {"sequence": "TTGCGCACGTGATAGG", "relative binding free energy": 0.03}, {"sequence": "TTGGACACGTGGGTGT", "relative binding free energy": -0.1}, {"sequence": "ATTATCACGTGCTGCG", "relative binding free energy": 0.11}, {"sequence": "TTTTTCACGTGGGGAA", "relative binding free energy": 0.2}, {"sequence": "GGGGGCACGTGGAATC", "relative binding free energy": 0.05}, {"sequence": "TTAAGCACGTGGGACG", "relative binding free energy": -0.18}, {"sequence": "TAATACACGTGTTGTA", "relative binding free energy": -0.18}, {"sequence": "CTGTCCACGTGTTGGT", "relative binding free energy": 0.01}, {"sequence": "AGGCGCACGTGAGCGG", "relative binding free energy": -0.05}, {"sequence": "ACATGCACGTGTTGGT", "relative binding free energy": -0.12}, {"sequence": "CGGATCACGTGGGGGG", "relative binding free energy": -0.04}, {"sequence": "GGAAGCACGTGGATTG", "relative binding free energy": -0.04}, {"sequence": "TTTACCACGTGTGGGG", "relative binding free energy": 0.12}, {"sequence": "TTCCTCACGTGGGGGG", "relative binding free energy": -0.05}, {"sequence": "CGTAGCACGTGTAGTT", "relative binding free energy": -0.02}, {"sequence": "GATTGCACGTGAGATT", "relative binding free energy": 0.19}, {"sequence": "TAGCTCACGTGTTTTT", "relative binding free energy": 0.12}, {"sequence": "AGGGGCACGTGGCGCA", "relative binding free energy": -0.29}, {"sequence": "AAGTTCACGTGTAAGA", "relative binding free energy": 0.39}, {"sequence": "TAATACACGTGCTGTT", "relative binding free energy": -0.08}, {"sequence": "TATAACACGTGCTTAT", "relative binding free energy": 0.06}, {"sequence": "TAGGCCACGTGGGGGG", "relative binding free energy": -0.17}, {"sequence": "CTATACACGTGTTAGG", "relative binding free energy": 0.12}, {"sequence": "CGAGGCACGTGTTGGT", "relative binding free energy": -0.09}, {"sequence": "GTTTGCACGTGATCGG", "relative binding free energy": 0.09}, {"sequence": "AAAGTCACGTGGTATG", "relative binding free energy": -0.06}, {"sequence": "ATTAGCACGTGAGTGT", "relative binding free energy": 0.15}, {"sequence": "GAAAACACGTGTGGTG", "relative binding free energy": -0.08}, {"sequence": "TTTTGCACGTGCGGCG", "relative binding free energy": 0.06}, {"sequence": "TCGTTCACGTGTAATG", "relative binding free energy": 0.3}, {"sequence": "TTTAACACGTGGGATA", "relative binding free energy": -0.04}, {"sequence": "TAGTGCACGTGGTCAG", "relative binding free energy": -0.22}, {"sequence": "GTCGCCACGTGATGTT", "relative binding free energy": 0.27}, {"sequence": "ATGTTCACGTGCTTTA", "relative binding free energy": 0.26}, {"sequence": "GTTTACACGTGGCTCG", "relative binding free energy": -0.01}, {"sequence": "GCAGTCACGTGTGTCG", "relative binding free energy": 0.24}, {"sequence": "GTGGTCACGTGCTCTT", "relative binding free energy": 0.13}, {"sequence": "GAGAGCACGTGAATTT", "relative binding free energy": 0.34}, {"sequence": "AAGTTCACGTGACGGG", "relative binding free energy": 0.46}, {"sequence": "TATATCACGTGGTTAT", "relative binding free energy": 0.01}, {"sequence": "GAGTGCACGTGTGAGA", "relative binding free energy": 0.26}, {"sequence": "AACTTCACGTGTAGTG", "relative binding free energy": 0.22}, {"sequence": "TGCAGCACGTGAATGG", "relative binding free energy": 0.13}, {"sequence": "GGACGCACGTGTATGG", "relative binding free energy": 0.02}, {"sequence": "AGATTCACGTGCGAGG", "relative binding free energy": 0.22}, {"sequence": "CTGTGCACGTGTGTGG", "relative binding free energy": 0.04}, {"sequence": "TTTGGCACGTGAGTAC", "relative binding free energy": 0.02}, {"sequence": "GTGTTCACGTGCACGG", "relative binding free energy": 0.21}, {"sequence": "ACTTGCACGTGATAGG", "relative binding free energy": 0.13}, {"sequence": "CGTCTCACGTGTTGAG", "relative binding free energy": 0.31}, {"sequence": "CTATACACGTGTGTGT", "relative binding free energy": 0.14}, {"sequence": "TATTTCACGTGCGGAT", "relative binding free energy": 0.21}, {"sequence": "TCATGCACGTGAGGTG", "relative binding free energy": 0.03}, {"sequence": "AATGGCACGTGGGGGA", "relative binding free energy": -0.27}, {"sequence": "CTGGTCACGTGATGTA", "relative binding free energy": 0.21}, {"sequence": "GATTGCACGTGTTTAC", "relative binding free energy": 0.13}, {"sequence": "CTTTTCACGTGGGTTG", "relative binding free energy": 0.25}, {"sequence": "GAAGGCACGTGAAAGT", "relative binding free energy": 0.14}, {"sequence": "CGGTGCACGTGTCTGG", "relative binding free energy": 0.01}, {"sequence": "GTTAGCACGTGACTTG", "relative binding free energy": 0}, {"sequence": "ATAGTCACGTGAGTAA", "relative binding free energy": 0.24}, {"sequence": "TTCGTCACGTGAGATT", "relative binding free energy": 0.43}, {"sequence": "TATTCCACGTGTATTA", "relative binding free energy": 0.07}, {"sequence": "GGGGGCACGTGAGGAG", "relative binding free energy": 0.1}, {"sequence": "CAGGTCACGTGGGTGG", "relative binding free energy": 0.02}, {"sequence": "ACATACACGTGTTGTT", "relative binding free energy": 0.03}, {"sequence": "GAGGTCACGTGTTGCA", "relative binding free energy": 0.3}, {"sequence": "TTGCTCACGTGATTGT", "relative binding free energy": 0.38}, {"sequence": "GGTGGCACGTGGACGA", "relative binding free energy": -0.07}, {"sequence": "GGGTACACGTGGCCGG", "relative binding free energy": -0.01}, {"sequence": "TTGGCCACGTGCGGGT", "relative binding free energy": -0.19}, {"sequence": "TCATGCACGTGGGCTG", "relative binding free energy": -0.09}, {"sequence": "TGTAGCACGTGAGCTT", "relative binding free energy": 0.01}, {"sequence": "CGTGGCACGTGTTCTT", "relative binding free energy": 0.03}, {"sequence": "AAGTTCACGTGGGTTA", "relative binding free energy": 0.18}, {"sequence": "TAGGACACGTGGGGCT", "relative binding free energy": -0.12}, {"sequence": "TATGGCACGTGGCGAG", "relative binding free energy": -0.19}, {"sequence": "AGTACCACGTGGGATG", "relative binding free energy": -0.22}, {"sequence": "ATGCTCACGTGTTGGC", "relative binding free energy": 0.36}, {"sequence": "GATAGCACGTGTATAT", "relative binding free energy": 0.11}, {"sequence": "GGTCACACGTGTCGGT", "relative binding free energy": 0.22}, {"sequence": "ATTAGCACGTGTTAGT", "relative binding free energy": -0.05}, {"sequence": "TTTTACACGTGGAGTC", "relative binding free energy": 0.13}, {"sequence": "TCGTTCACGTGTACGG", "relative binding free energy": 0.27}, {"sequence": "TTGTACACGTGAGGCG", "relative binding free energy": 0.26}, {"sequence": "GTGGACACGTGTAGTA", "relative binding free energy": -0.04}, {"sequence": "TACGGCACGTGTGTAA", "relative binding free energy": -0.04}, {"sequence": "TTTATCACGTGTCGGA", "relative binding free energy": 0.2}, {"sequence": "ACATTCACGTGGGGTG", "relative binding free energy": 0.08}, {"sequence": "GTGGACACGTGGTAAA", "relative binding free energy": 0.11}, {"sequence": "GGAGTCACGTGGTTTG", "relative binding free energy": 0.19}, {"sequence": "GTAGGCACGTGATCTG", "relative binding free energy": -0.08}, {"sequence": "AAGTGCACGTGTTATT", "relative binding free energy": 0.04}, {"sequence": "TGTTCCACGTGAGAGT", "relative binding free energy": 0.31}, {"sequence": "GTGCTCACGTGGAGGG", "relative binding free energy": 0.18}, {"sequence": "TGATCCACGTGAGGAT", "relative binding free energy": 0.49}, {"sequence": "TGAGCCACGTGGGGAT", "relative binding free energy": -0.14}, {"sequence": "GCCTGCACGTGTGGTT", "relative binding free energy": 0.1}, {"sequence": "TTTAGCACGTGGCGTA", "relative binding free energy": -0.05}, {"sequence": "ATGGGCACGTGTTTTC", "relative binding free energy": 0.05}, {"sequence": "ATGGGCACGTGTGTAG", "relative binding free energy": -0.09}, {"sequence": "TTTGGCACGTGGCTTT", "relative binding free energy": -0.19}, {"sequence": "CGGTTCACGTGTTTTC", "relative binding free energy": 0.3}, {"sequence": "TTTCGCACGTGCGTGT", "relative binding free energy": 0.01}, {"sequence": "AAGGTCACGTGTCGTA", "relative binding free energy": 0.12}, {"sequence": "AGAGGCACGTGGGGCC", "relative binding free energy": -0.31}, {"sequence": "GTTTGCACGTGGCGTA", "relative binding free energy": -0.06}, {"sequence": "GTTCGCACGTGATTAG", "relative binding free energy": 0.19}, {"sequence": "CTTGTCACGTGCAGTT", "relative binding free energy": 0.11}, {"sequence": "TGGCTCACGTGGATGC", "relative binding free energy": 0.34}, {"sequence": "TGTTCCACGTGAGTTT", "relative binding free energy": 0.32}, {"sequence": "ATTTACACGTGTCGTT", "relative binding free energy": -0.01}, {"sequence": "ATACTCACGTGGGGTG", "relative binding free energy": 0}, {"sequence": "GAAGTCACGTGTTGAG", "relative binding free energy": 0.16}, {"sequence": "ACGGGCACGTGTTGAT", "relative binding free energy": -0.11}, {"sequence": "CATAGCACGTGAGTGT", "relative binding free energy": 0.31}, {"sequence": "TTTGACACGTGAAAGT", "relative binding free energy": 0.21}, {"sequence": "AATCGCACGTGTGGGT", "relative binding free energy": -0.05}, {"sequence": "CTGGGCACGTGTTTTG", "relative binding free energy": -0.08}, {"sequence": "GTATTCACGTGCAGGT", "relative binding free energy": 0.02}, {"sequence": "GTGGGCACGTGAACTG", "relative binding free energy": 0.28}, {"sequence": "TGCTTCACGTGGAATA", "relative binding free energy": 0.32}, {"sequence": "CGGTGCACGTGGTTCA", "relative binding free energy": -0.13}, {"sequence": "GGTAGCACGTGTCTGT", "relative binding free energy": -0.11}, {"sequence": "TGGATCACGTGGGGCA", "relative binding free energy": 0.06}, {"sequence": "TGATGCACGTGGTTCT", "relative binding free energy": -0.08}, {"sequence": "ATAATCACGTGCAGGG", "relative binding free energy": 0.18}, {"sequence": "GAACACACGTGTGGGG", "relative binding free energy": 0.18}, {"sequence": "AATGGCACGTGATTGT", "relative binding free energy": -0.1}, {"sequence": "CTCGTCACGTGGTGTT", "relative binding free energy": -0.1}, {"sequence": "TTGTTCACGTGAGAAT", "relative binding free energy": 0.42}, {"sequence": "AAGGCCACGTGTGGAG", "relative binding free energy": -0.04}, {"sequence": "TTTCTCACGTGTTTTA", "relative binding free energy": 0.27}, {"sequence": "TCGGTCACGTGTTGTG", "relative binding free energy": 0.21}, {"sequence": "GCGAGCACGTGTGCGG", "relative binding free energy": -0.15}, {"sequence": "GTATTCACGTGTTCAT", "relative binding free energy": 0.27}, {"sequence": "GGAGGCACGTGGGCCT", "relative binding free energy": -0.28}, {"sequence": "AGGCGCACGTGGGGCA", "relative binding free energy": -0.35}, {"sequence": "GATTCCACGTGGTTGT", "relative binding free energy": 0.22}, {"sequence": "AAGGCCACGTGTGTGA", "relative binding free energy": -0.12}, {"sequence": "TAAAGCACGTGGGGTA", "relative binding free energy": -0.23}]}]}
